Experimental data reported in publication PMC5303829, “A CAF40-binding motif facilitates recruitment of the CCR4-NOT complex to mRNAs targeted by Drosophila Roquin” (Nature Communications, 2017).
Residue numbers refer to the chain shown, from its start. Results are given in words; binding and its absence hold for the method and conditions named. Binding seen in cells or lysates may run through a third protein. Where a sequence is shown, tags or fusion partners need not be part of it.

Chains of the proteins cited; added tags and fusions are not shown.
UniProt Q7JVP2: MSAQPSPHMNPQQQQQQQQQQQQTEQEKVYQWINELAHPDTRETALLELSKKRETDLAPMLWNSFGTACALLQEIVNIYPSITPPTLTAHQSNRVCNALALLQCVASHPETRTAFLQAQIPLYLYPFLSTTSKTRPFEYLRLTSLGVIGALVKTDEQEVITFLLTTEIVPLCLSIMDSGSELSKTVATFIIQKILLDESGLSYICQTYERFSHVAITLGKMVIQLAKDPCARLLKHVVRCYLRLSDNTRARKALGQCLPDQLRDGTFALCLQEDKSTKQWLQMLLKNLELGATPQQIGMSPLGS

Columns and labels:
Test in all cases: co-IP; GFP-tagged Dm Roquin and HA-tagged CAF40 co-expressed in Dm S2 cells in the presence of HA-tagged CN9BD; lysates treated with RNase A (Fig. 5)
[1] = biological target: T1, GFP-tagged Dm Roquin M2 mutant (Drosophila melanogaster) (UniProt Q9VV48)
T1 sequence: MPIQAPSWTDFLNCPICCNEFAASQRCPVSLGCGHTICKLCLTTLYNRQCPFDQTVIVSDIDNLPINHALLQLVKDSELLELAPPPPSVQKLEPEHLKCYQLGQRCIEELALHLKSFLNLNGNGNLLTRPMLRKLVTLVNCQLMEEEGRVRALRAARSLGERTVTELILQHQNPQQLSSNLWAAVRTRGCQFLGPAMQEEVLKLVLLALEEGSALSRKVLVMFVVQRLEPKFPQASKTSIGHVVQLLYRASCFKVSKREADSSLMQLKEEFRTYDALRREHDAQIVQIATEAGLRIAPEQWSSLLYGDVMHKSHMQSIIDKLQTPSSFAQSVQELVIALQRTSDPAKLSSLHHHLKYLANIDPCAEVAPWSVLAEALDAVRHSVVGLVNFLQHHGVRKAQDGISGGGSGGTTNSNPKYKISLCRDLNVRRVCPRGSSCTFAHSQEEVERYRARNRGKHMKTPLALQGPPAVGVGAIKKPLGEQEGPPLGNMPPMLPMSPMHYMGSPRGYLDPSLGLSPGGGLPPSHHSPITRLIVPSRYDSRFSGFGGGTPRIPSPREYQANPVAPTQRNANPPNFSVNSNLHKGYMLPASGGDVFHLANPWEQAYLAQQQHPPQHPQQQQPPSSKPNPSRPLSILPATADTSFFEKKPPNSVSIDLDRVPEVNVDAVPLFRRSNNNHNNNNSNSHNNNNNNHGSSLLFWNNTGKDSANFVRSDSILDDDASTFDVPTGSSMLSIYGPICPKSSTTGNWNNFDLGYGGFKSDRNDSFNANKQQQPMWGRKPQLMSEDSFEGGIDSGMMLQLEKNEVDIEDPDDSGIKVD

[2] = biological target: T2, GFP-tagged Dm Roquin ΔCBM (Drosophila melanogaster) (UniProt Q9VV48)
T2 sequence: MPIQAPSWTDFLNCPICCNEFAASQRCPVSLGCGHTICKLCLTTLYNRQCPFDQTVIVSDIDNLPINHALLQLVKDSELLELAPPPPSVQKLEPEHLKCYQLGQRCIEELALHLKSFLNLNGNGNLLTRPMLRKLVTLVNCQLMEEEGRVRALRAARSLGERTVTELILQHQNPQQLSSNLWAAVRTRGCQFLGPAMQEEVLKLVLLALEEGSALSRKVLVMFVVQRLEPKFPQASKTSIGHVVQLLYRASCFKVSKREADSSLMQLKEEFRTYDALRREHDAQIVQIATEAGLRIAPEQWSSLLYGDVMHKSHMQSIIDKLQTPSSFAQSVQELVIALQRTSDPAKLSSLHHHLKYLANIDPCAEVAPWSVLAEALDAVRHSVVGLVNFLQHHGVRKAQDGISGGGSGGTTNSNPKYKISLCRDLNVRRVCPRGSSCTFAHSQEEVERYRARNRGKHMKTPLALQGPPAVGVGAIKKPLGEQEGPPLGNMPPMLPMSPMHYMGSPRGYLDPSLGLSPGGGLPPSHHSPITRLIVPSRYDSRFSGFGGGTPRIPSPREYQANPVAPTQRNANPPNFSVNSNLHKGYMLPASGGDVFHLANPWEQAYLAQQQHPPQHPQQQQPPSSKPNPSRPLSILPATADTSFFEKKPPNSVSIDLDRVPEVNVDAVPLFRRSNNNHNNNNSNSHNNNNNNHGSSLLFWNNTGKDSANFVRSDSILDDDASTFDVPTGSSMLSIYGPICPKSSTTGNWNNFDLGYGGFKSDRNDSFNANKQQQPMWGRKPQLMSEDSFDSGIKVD

[3] = biological target: T3, GFP-tagged Dm Roquin M4 mutant (Drosophila melanogaster) (UniProt Q9VV48)
T3 sequence: T1 sequence with I793E, L801E

Measured: binding

HA-tagged Dm CAF40 (full-length, wild-type) (from UniProt Q7JVP2 1-304)
no binding: all assays above
